Laboratory results: the supplement of paper PMC8948288
Shown are siRNA guide strands that differ only in the seed, positions 2 to 7.

Columns and labels:
GL261 = test: cell viability relative to siNT1 (ATP content); H4 human neuroglioma and GL261 mouse glioma; higher = less toxic; settings: siRNA concentration 25 nM; 96 h; mouse
Procedure: (§1)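 Arrayed screen of all 4096 6mer seeds. Each seed sits at guide-strand positions 2-7 of a neutral 19mer siRNA backbone (siNT1-based, passenger strand 2'-O-methyl modified at positions 1-2 to block RISC loading, 3' DNA overhangs). The guide strand is built here as U + seed + ACAUGUAAACCA. Cells were reverse transfected in triplicate in 384-well plates (H4 at 10 nM, GL261 at 25 nM) with Lipofectamine RNAiMAX. Viability was read as ATP content (CellTiter-Glo) 96 h after transfection and normalised to siNT1 (%).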

H4 = test: as above; settings: siRNA concentration 10 nM; 96 h; human
Procedure: as §1
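Note: cells reverse transfected with siRNA duplexes via lipid reagent, ATP read by luminescence, triplicate wells, values scaled to mean viability with non-targeting control siNT1.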

UACCGCUACAUGUAAACCA
cell viability (GL261): 38.6% | cell viability (H4): 81.5%

UACCGGAACAUGUAAACCA
cell viability (GL261): 51.6% | cell viability (H4): 68.6%

UACCGGCACAUGUAAACCA
cell viability (GL261): 30.4% | cell viability (H4): 79.2%

UACCGGGACAUGUAAACCA
cell viability (GL261): 46.7% | cell viability (H4): 97.2%

UACCGGUACAUGUAAACCA
cell viability (GL261): 49.3% | cell viability (H4): 106%

UACCGUAACAUGUAAACCA
cell viability (GL261): 54.5% | cell viability (H4): 111%

UACCGUCACAUGUAAACCA
cell viability (GL261): 22.2% | cell viability (H4): 83.7%

UACCGUGACAUGUAAACCA
cell viability (GL261): 64.1% | cell viability (H4): 76.4%

UACCGUUACAUGUAAACCA
cell viability (GL261): 58.2% | cell viability (H4): 80.9%

UACCUAAACAUGUAAACCA
cell viability (GL261): 70.9% | cell viability (H4): 110%

UACCUACACAUGUAAACCA
cell viability (GL261): 51.8% | cell viability (H4): 78%

UACCUAGACAUGUAAACCA
cell viability (GL261): 49.1% | cell viability (H4): 75%

UACCUAUACAUGUAAACCA
cell viability (GL261): 58.8% | cell viability (H4): 65.1%

UACCUCAACAUGUAAACCA
cell viability (GL261): 56.2% | cell viability (H4): 66.5%

UACCUCCACAUGUAAACCA
cell viability (GL261): 22.3% | cell viability (H4): 41.3%

UACCUCGACAUGUAAACCA
cell viability (GL261): 41.5% | cell viability (H4): 89.7%

UACCUCUACAUGUAAACCA
cell viability (GL261): 34.6% | cell viability (H4): 46%

UACCUGAACAUGUAAACCA
cell viability (GL261): 53.8% | cell viability (H4): 99.1%

UACCUGCACAUGUAAACCA
cell viability (GL261): 21.8% | cell viability (H4): 8.8%

UACCUGGACAUGUAAACCA
cell viability (GL261): 38.9% | cell viability (H4): 65.7%

UACCUGUACAUGUAAACCA
cell viability (GL261): 34.6% | cell viability (H4): 53.2%

UACCUUAACAUGUAAACCA
cell viability (GL261): 55.9% | cell viability (H4): 95.3%

UACCUUCACAUGUAAACCA
cell viability (GL261): 38.6% | cell viability (H4): 77.8%

UACCUUGACAUGUAAACCA
cell viability (GL261): 49% | cell viability (H4): 67.2%

UACCUUUACAUGUAAACCA
cell viability (GL261): 21.3% | cell viability (H4): 35.8%

UACGAAAACAUGUAAACCA
cell viability (GL261): 71.8% | cell viability (H4): 79.8%

UACGAACACAUGUAAACCA
cell viability (GL261): 59.7% | cell viability (H4): 93.9%

UACGAAGACAUGUAAACCA
cell viability (GL261): 69% | cell viability (H4): 82.3%

UACGAAUACAUGUAAACCA
cell viability (GL261): 58.6% | cell viability (H4): 97.6%

UACGACAACAUGUAAACCA
cell viability (GL261): 63.8% | cell viability (H4): 89.6%

UACGACCACAUGUAAACCA
cell viability (GL261): 44.6% | cell viability (H4): 68.6%

UACGACGACAUGUAAACCA
cell viability (GL261): 58.6% | cell viability (H4): 90%

UACGACUACAUGUAAACCA
cell viability (GL261): 55% | cell viability (H4): 64.2%

UACGAGAACAUGUAAACCA
cell viability (GL261): 57.9% | cell viability (H4): 79.6%

UACGAGCACAUGUAAACCA
cell viability (GL261): 39.9% | cell viability (H4): 75.7%

UACGAGGACAUGUAAACCA
cell viability (GL261): 63% | cell viability (H4): 69.6%

UACGAGUACAUGUAAACCA
cell viability (GL261): 36.6% | cell viability (H4): 83.2%

UACGAUAACAUGUAAACCA
cell viability (GL261): 57.5% | cell viability (H4): 96.3%

UACGAUCACAUGUAAACCA
cell viability (GL261): 69.4% | cell viability (H4): 80%

UACGAUGACAUGUAAACCA
cell viability (GL261): 59.3% | cell viability (H4): 77.9%

UACGAUUACAUGUAAACCA
cell viability (GL261): 54.9% | cell viability (H4): 104%

UACGCAAACAUGUAAACCA
cell viability (GL261): 68% | cell viability (H4): 116%

UACGCACACAUGUAAACCA
cell viability (GL261): 46.2% | cell viability (H4): 89%

UACGCAGACAUGUAAACCA
cell viability (GL261): 62.6% | cell viability (H4): 74.3%

UACGCAUACAUGUAAACCA
cell viability (GL261): 45.7% | cell viability (H4): 105%

UACGCCAACAUGUAAACCA
cell viability (GL261): 57.4% | cell viability (H4): 82.2%

UACGCCCACAUGUAAACCA
cell viability (GL261): 35% | cell viability (H4): 62.2%

UACGCCGACAUGUAAACCA
cell viability (GL261): 63.9% | cell viability (H4): 106%

UACGCCUACAUGUAAACCA
cell viability (GL261): 44.4% | cell viability (H4): 89.9%

UACGCGAACAUGUAAACCA
cell viability (GL261): 60.9% | cell viability (H4): 110%

UACGCGCACAUGUAAACCA
cell viability (GL261): 45.6% | cell viability (H4): 89.6%

UACGCGGACAUGUAAACCA
cell viability (GL261): 39.9% | cell viability (H4): 67.4%

UACGCGUACAUGUAAACCA
cell viability (GL261): 58.3% | cell viability (H4): 76.9%

UACGCUAACAUGUAAACCA
cell viability (GL261): 65.2% | cell viability (H4): 86.8%

UACGCUCACAUGUAAACCA
cell viability (GL261): 25.9% | cell viability (H4): 92.2%

UACGCUGACAUGUAAACCA
cell viability (GL261): 68.3% | cell viability (H4): 105%
